Laboratory results published in the supplement of paper PMC8728848.
This excerpt belongs to a sample that is enriched for the strongest signals.

How the values were obtained:
Assay in all cases: glycan array binding signal (z-score within array); higher = stronger binding
Details in all cases: glycan notation: IUPAC condensed, linker removed
[1] = tested on: Neu5Ac(a2-3)Gal(b1-4)GlcNAc(b1-3)Gal(b1-4)[Fuc(a1-3)]GlcNAc
Summary of the method: (§1)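 Arrays were curated from the Consortium for Functional Glycomics database, 3228 in total, and kept only where the protein sequence was available. Binding is expressed as a within-array Z-score. This score was averaged across arrays of the same protein sequence at different concentrations or buffers and across linkers, and negative values can be read as non-binding.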

[2] = tested on: Neu5Ac(a2-3)Gal(b1-4)GlcNAc6S
Summary of the method: as §1

[3] = tested on: Neu5Ac(a2-3)Gal(b1-4)[Fuc(a1-3)]GlcNAc(b1-3)Gal(b1-4)GlcNAc
Summary of the method: as §1

[4] = tested on: Neu5Ac(a2-3)Gal(b1-4)GlcNAc(b1-6)GalNAc
Summary of the method: as §1

[5] = tested on: Neu5Ac(a2-3)Gal(b1-4)GlcNAc
Summary of the method: as §1

[6] = tested on: Neu5Ac(a2-3)Gal(b1-4)[Fuc(a1-3)]GlcNAc(b1-3)Gal(b1-4)[Fuc(a1-3)]GlcNAc(b1-3)Gal(b1-4)[Fuc(a1-3)]GlcNAc
Summary of the method: as §1

[7] = tested on: Neu5Ac(a2-3)Gal(b1-4)Glc
Summary of the method: as §1

[8] = tested on: Neu5Ac(a2-3)GalNAc
Summary of the method: as §1

[9] = tested on: Neu5Ac(a2-3)Gal(b1-4)GlcNAc(b1-3)[Neu5Ac(a2-3)Gal(b1-4)GlcNAc(b1-6)]GalNAc
Summary of the method: as §1

[10] = tested on: Neu5Ac(a2-3)Gal6S(b1-4)[Fuc(a1-3)]GlcNAc
Summary of the method: as §1

[11] = tested on: Neu5Ac(a2-3)Gal(b1-4)[Fuc(a1-3)]GlcNAc(b1-3)GalNAc
Summary of the method: as §1

[12] = tested on: Neu5Ac(a2-3)Gal(b1-4)[Fuc(a1-3)]GlcNAc(b1-6)[Gal(b1-3)]GalNAc
Summary of the method: as §1

[13] = tested on: Neu5Ac(a2-3)Gal(b1-4)[Fuc(a1-3)]GlcNAc
Summary of the method: as §1

[14] = tested on: Neu5Ac(a2-3)Gal(b1-4)GlcNAc(b1-3)Gal(b1-4)GlcNAc
Summary of the method: as §1

[15] = tested on: Neu5Ac(a2-3)GalNAc(b1-4)GlcNAc
Summary of the method: as §1

[16] = tested on: Neu5Ac(a2-3)Gal(b1-4)[Fuc(a1-3)]GlcNAc(b1-6)[Neu5Ac(a2-3)Gal(b1-3)]GalNAc
Summary of the method: as §1

[17] = tested on: Neu5Ac(a2-3)Gal(b1-4)GlcNAc(b1-6)[Gal(b1-3)]GalNAc
Summary of the method: as §1

[18] = tested on: Neu5Ac(a2-3)Gal(b1-4)GlcNAc(b1-3)GalNAc
Summary of the method: as §1

[19] = tested on: Neu5Ac(a2-3)Gal(b1-4)GlcNAc(b1-6)[Neu5Ac(a2-3)Gal(b1-3)]GalNAc
Summary of the method: as §1

What does the source list for “Angiogenin (Homo sapiens) (chain not printed)”?
glycan array binding signal (z-score) [1]: 1.96; glycan array binding signal (z-score) [2]: 1.82; glycan array binding signal (z-score) [3]: 0.745

For “Gal 3 (Homo sapiens) (chain not printed)”, which “glycan array binding signal (z-score)” value [4] is on record?
Its value is -0.229.

What does the source list for “M-Ficolin Y271F (Homo sapiens) (chain not printed)”?
glycan array binding signal (z-score) [2]: -0.09; glycan array binding signal (z-score) [5]: -0.031; glycan array binding signal (z-score) [6]: -0.464

“L-Ficolin (Homo sapiens) (chain not printed)” was tested. Which “glycan array binding signal (z-score)” value [7] did it give?
Its value is -0.385.

And the “glycan array binding signal (z-score)” value [6]?
Its value is -0.479.

What about the “glycan array binding signal (z-score)” value [8] of the same substance?
The value was 0.492.

With “Thrombomodulin Extracellular (Homo sapiens) (chain not printed)” as the substance, how does the “glycan array binding signal (z-score)” value [9] read?
The value was -0.119.

And the “glycan array binding signal (z-score)” value [10]?
The value was -0.315.

“NCAM1 (Homo sapiens) (chain not printed)” was tested. Which “glycan array binding signal (z-score)” value [1] did it give?
The value was -0.311.

And the “glycan array binding signal (z-score)” value [5]?
Its value is -0.275.

And the “glycan array binding signal (z-score)” value [3]?
The value was 0.074.

And the “glycan array binding signal (z-score)” value [11]?
Its value is 6.09.

What about the “glycan array binding signal (z-score)” value [12] of the same substance?
Its value is 3.74.

And the “glycan array binding signal (z-score)” value [13]?
The value was -0.322.

Which “glycan array binding signal (z-score)” value [14] does the source give for “Collectin K1 (Homo sapiens) (chain not printed)” here?
The value was -0.232.

What about the “glycan array binding signal (z-score)” value [5] of the same substance?
Its value is -0.161.

What about the “glycan array binding signal (z-score)” value [13] of the same substance?
Its value is -0.101.

And the “glycan array binding signal (z-score)” value [15]?
The value was -0.133.

What about the “glycan array binding signal (z-score)” value [8] of the same substance?
The value was -0.203.

“M-Ficolin (Homo sapiens) (chain not printed)” was tested. Which “glycan array binding signal (z-score)” value [3] did it give?
The value was -0.09.

What about the “glycan array binding signal (z-score)” value [16] of the same substance?
The value was -0.01.

Which results are given for MBP (Homo sapiens) (chain not printed)?
glycan array binding signal (z-score) [14]: -0.382; glycan array binding signal (z-score) [1]: -0.27

What does the source list for “M-Ficolin G221F A256V (Homo sapiens) (chain not printed)”?
glycan array binding signal (z-score) [14]: 4.91; glycan array binding signal (z-score) [17]: -0.117; glycan array binding signal (z-score) [5]: 2.23

What does the source list for “CLEC-2 (Homo sapiens) (chain not printed)”?
glycan array binding signal (z-score) [18]: 0.044; glycan array binding signal (z-score) [11]: 2.52

“Siglec-2 (Homo sapiens) (chain not printed)” was tested. Which “glycan array binding signal (z-score)” value [19] did it give?
The value was -0.213.

With “Galectin-8 C-terminal CRD (Homo sapiens) (chain not printed)” as the substance, how does the “glycan array binding signal (z-score)” value [13] read?
The value was -0.329.

What about the “glycan array binding signal (z-score)” value [8] of the same substance?
Its value is -0.354.

With VWF (Homo sapiens) (chain not printed) as the substance, how does the “glycan array binding signal (z-score)” value [17] read?
Its value is -0.427.

What about the “glycan array binding signal (z-score)” value [7] of the same substance?
Its value is -0.24.

And the “glycan array binding signal (z-score)” value [8]?
Its value is -0.016.
